Experimental data from publication PMC6919601, “Identification of Plasmodium dipeptidyl aminopeptidase allosteric inhibitors by high throughput screening” (PLoS ONE, 2019).
The whole screen tested about 110,000 compounds, of which about 230 (0.21%) showed an effect of 50% or more. The list shows a part of the results.

Each compound was assayed against DPAP1 (Plasmodium falciparum, UniProt Q8IIJ9) (assay: primary screen, percent inhibition; read by cleavage of a fluorogenic dipeptide substrate; higher = more effect of the substance).
Set-up: species or system P. falciparum D10 trophozoite lysates; single well
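Note: 30 min substrate incubation versus DMSO and 10 µM JCP410 controls.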

DPAP1, sequence (Q8IIJ9 whole entry, looked up): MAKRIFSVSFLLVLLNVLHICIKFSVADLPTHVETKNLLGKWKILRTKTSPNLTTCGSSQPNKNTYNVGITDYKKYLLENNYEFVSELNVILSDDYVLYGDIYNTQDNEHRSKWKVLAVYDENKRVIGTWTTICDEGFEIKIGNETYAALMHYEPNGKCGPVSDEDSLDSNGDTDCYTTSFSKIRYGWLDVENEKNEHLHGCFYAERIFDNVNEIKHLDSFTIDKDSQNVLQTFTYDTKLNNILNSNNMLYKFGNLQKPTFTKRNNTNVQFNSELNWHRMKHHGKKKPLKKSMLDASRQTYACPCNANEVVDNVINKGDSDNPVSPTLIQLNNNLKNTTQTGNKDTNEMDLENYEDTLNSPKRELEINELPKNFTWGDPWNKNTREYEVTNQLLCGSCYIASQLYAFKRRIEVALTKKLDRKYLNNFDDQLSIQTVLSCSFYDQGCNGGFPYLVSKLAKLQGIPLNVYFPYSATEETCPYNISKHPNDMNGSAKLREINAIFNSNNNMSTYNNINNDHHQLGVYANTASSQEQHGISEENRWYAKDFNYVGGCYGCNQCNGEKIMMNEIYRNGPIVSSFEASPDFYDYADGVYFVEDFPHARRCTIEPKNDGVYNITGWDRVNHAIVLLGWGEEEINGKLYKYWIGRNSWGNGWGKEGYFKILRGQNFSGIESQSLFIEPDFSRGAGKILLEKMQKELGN

First: Cc1ccc2oc(-c3ccc(NC(=O)c4ccc(C)c([N+](=O)[O-])c4)cc3)nc2c1
Second: CC(C)(C)c1ccc(C(=O)Nc2ccc(S(N)(=O)=O)cc2)cc1Br
The “% Inhibition @ 10 uM” value of the first is lower: 1.41% for the first, 3.79% for the second.

First: CCCN(CCC)S(=O)(=O)c1cc(CN2C(=O)c3cccnc3C2=O)ccc1OC
Second: CCN1C(=O)c2cccc3c(Cl)ccc(c23)C1=O
The “% Inhibition @ 10 uM” value of the first is lower: -4.21% for the first, 0.526% for the second.

Compared with `CC(=O)c1cn(-c2nonc2N)nn1`, `CCOc1ccc(-n2nnc(-c3nc(-c4ccccc4)no3)c2N)cc1` is higher in “% Inhibition @ 10 uM” value: -5.51% for the first, 2.15% for the second.

First: CC1=C(C(=O)N2CCOCC2)C(c2ccc(O)cc2)C2=C(O)CC(C)(C)CC2=N1 (stereo not shown)
Second: O=C1N=C(N2CCOCC2)S/C1=C/c1ccc(O)cc1
The “% Inhibition @ 10 uM” value of the first is lower: -1.48% for the first, -0.99% for the second.

Compared with `COc1ccc(-c2csc(-c3cc4ccccc4oc3=O)n2)cc1`, `COc1ccc(-c2cn3cc(-c4cccc(Cl)c4)nc3n2C)cc1` is lower in “% Inhibition @ 10 uM” value: 2.7% for the first, 0.627% for the second.

Going from `COc1ccccc1-c1cc(C(=O)N2CCC(C)CC2)no1` to `CC1CCN(C(=O)CCCOc2ccc(Cl)cc2Cl)CC1`, the “% Inhibition @ 10 uM” value rises from -2.65% to 3.83%.

First: Fc1ccc(-c2c[n+](-c3ccccc3)c3n2CCCS3)cc1
Second: O=C(CN(c1ccc(F)cc1)S(=O)(=O)c1ccc2c(c1)OCCO2)N1CCc2ccccc2C1
The “% Inhibition @ 10 uM” value of the first is higher: 4.99% for the first, -12.4% for the second.

Compared with `COc1ccc(N2C(=O)C3C4C=CC(C)(O4)C3C2=O)cc1` (stereo not shown), `CC(=O)Nc1ccc(N2C(=O)c3cc(Cl)c(Cl)cc3C2=O)cc1` is higher in “% Inhibition @ 10 uM” value: 3.05% for the first, 3.17% for the second.

Compared with `COc1ccc(NS(=O)(=O)c2ccc(NC(=O)c3ccccc3Br)cc2)cc1`, `COc1ccc(NC(=O)/C(NC(=O)c2ccccc2)=C(\C)c2ccccc2)cc1` is higher in “% Inhibition @ 10 uM” value: -1.6% for the first, 2.45% for the second.

Compared with `COc1ccccc1C1CC2=NC(C)=C(C(=O)OCC3CCCO3)C(c3ccccc3F)C2=C(O)C1` (stereo not shown), `COCCN1C(=O)c2[nH]nc(-c3ccccc3O)c2C1c1ccccc1F` (stereo not shown) is lower in “% Inhibition @ 10 uM” value: 2.25% for the first, -4.95% for the second.

Compared with `COc1cc(OC)cc(-c2cc3nc(C)c(CCC(=O)NCc4cccnc4)c(C)n3n2)c1`, `CCOc1ccc(C(=O)NCc2cccnc2)cc1` is higher in “% Inhibition @ 10 uM” value: 1.26% for the first, 11.8% for the second.

Going from `COc1ccc(CC(=O)Nc2c3c(nn2-c2cccc(Cl)c2)CS(=O)(=O)C3)cc1` to `O=C(Nc1c2c(nn1-c1cccc(Cl)c1)CSC2)c1ccc(S(=O)(=O)N2CCCC2)cc1`, the “% Inhibition @ 10 uM” value rises from -4.16% to -2.38%.

`CCn1nc(C)c(CCNC(=O)c2cc3c(=O)n(Cc4ccco4)ccc3nc2C)c1C` and `Cc1nc2ccn(Cc3cccs3)c(=O)c2cc1C(=O)NCc1ccccc1F` are the same in “% Inhibition @ 10 uM” value: -1.56% for the first, -1.56% for the second.

Compared with `Cc1nc2ccc(S(=O)(=O)NCC(=O)NCCc3ccc(Cl)cc3)cc2s1`, `Cc1ccsc1CCNC(=O)CCNS(=O)(=O)c1ccc2nc(O)ccc2c1` is higher in “% Inhibition @ 10 uM” value: 2.57% for the first, 3.25% for the second.

Going from `CCOC(=O)c1c(NC(=O)c2cccc(OC)c2)sc(C(=O)NC2CCCC2)c1C` to `CCOC(=O)c1sc(N2C(=O)C(O)=C(C(=O)c3ccccc3)C2c2ccc(OC)cc2)nc1C` (stereo not shown), the “% Inhibition @ 10 uM” value rises from -1.17% to 0.487%.

Compared with `O=c1c2cnn(-c3ccccc3)c2ncn1C/C=C/c1ccccc1`, `CC(NC(=O)CSc1nc(=O)cc(N)n1-c1ccccc1)c1ccccc1` (stereo not shown) is higher in “% Inhibition @ 10 uM” value: -3.53% for the first, 7.16% for the second.

Compared with `C#CCn1cc(/C=C(/C#N)C(=O)Nc2ccc(OCC)cc2)c2ccccc21`, `CCOc1ccccc1/C=C(\C#N)c1nc(-c2ccc(C)cc2)cs1` is lower in “% Inhibition @ 10 uM” value: -1.32% for the first, -2.42% for the second.

Going from `NC(=O)c1cc(NC(=O)c2ccc([N+](=O)[O-])cc2)c(Cl)cc1Cl` to `O=C(CCN1C(=O)S/C(=C\c2ccc(Cl)cc2)C1=O)Nc1ccc(C(=O)O)cc1`, the “% Inhibition @ 10 uM” value rises from -0.771% to 11.7%.

First: CCOC(=O)c1c(S(=O)(=O)NCCCOC)c(C)n(C)c1C
Second: COc1cc(C(C)=O)ccc1OCC(O)Cn1nc(C)c(C)c1C (stereo not shown)
The “% Inhibition @ 10 uM” value of the first is lower: -4.9% for the first, -1.05% for the second.

First: Cc1ccccc1CN(c1ccc(C(=O)N(C)Cc2ccccc2)cc1)S(C)(=O)=O
Second: CC(C(=O)NCc1ccccc1)N(c1ccccc1)S(C)(=O)=O (stereo not shown)
The “% Inhibition @ 10 uM” value of the first is lower: 1.1% for the first, 3.7% for the second.

Compared with `COc1ccc(OC)c(C(O)CNC2CCNCC2)c1` (stereo not shown), `COc1ccc2oc(=O)cc(CN3CCN(C(=O)c4cc(OC)c(OC)c(OC)c4)CC3)c2c1` is lower in “% Inhibition @ 10 uM” value: -1.57% for the first, -4.67% for the second.

Going from `COc1ccc(Cl)cc1N(CC(=O)N1CCCCC1)S(C)(=O)=O` to `COc1ccc(S(=O)(=O)N2CCC(C(=O)NCCC3=CCCCC3)CC2)cc1`, the “% Inhibition @ 10 uM” value rises from 0.643% to 5.09%.

First: c1cc2c(cc1CN1CCSCC1)OCO2
Second: O=C(COCc1cc(-c2ccc3c(c2)OCO3)on1)N1CCN(C(=O)c2ccco2)CC1
The “% Inhibition @ 10 uM” value of the first is lower: -1.92% for the first, 8.8% for the second.

Going from `Cc1ccc(S(=O)(=O)N2CCN(C(c3ccccc3)c3ccccc3)CC2)cc1` to `Cc1ccc(S(=O)(=O)N(CC(=O)N2CCc3ccccc3C2)c2cccc(C)c2)cc1`, the “% Inhibition @ 10 uM” value falls from -0.128% to -12.5%.

First: CCc1cccc(CC)c1NC(=O)c1cncc(Br)c1
Second: CCN(CC)C(=O)Cc1cn(C)c2ccccc12
The “% Inhibition @ 10 uM” value of the first is higher: -5.3% for the first, -6.29% for the second.

Compared with `N#CCc1nc(CSc2nnnn2-c2ccccc2)cs1`, `CC(NC(=O)Cn1c(=O)[nH]c2ccsc2c1=O)c1ccccc1` (stereo not shown) is higher in “% Inhibition @ 10 uM” value: 1.72% for the first, 2% for the second.

Going from `C=CCOC(=O)c1sc(N2C(=O)c3oc4ccccc4c(=O)c3C2c2ccc(Cl)cc2)nc1C` (stereo not shown) to `CCOc1ccc2nc(NC(=O)Nc3cn(C)c(=O)c4ccccc34)sc2c1`, the “% Inhibition @ 10 uM” value rises from -5.11% to 7.22%.

First: Cc1cc(CNC(=O)c2ccc(Cn3c(SCc4ccc(F)cc4)nc4cccnc43)cc2)[nH]n1
Second: CN(CCCNC(=O)c1ccc2c(c1)nc(S)n1c3ccccc3nc21)Cc1ccccc1
The “% Inhibition @ 10 uM” value of the first is lower: 4.79% for the first, 8.59% for the second.

Compared with `COc1cc(C2C(C#N)=C(N)N(c3ccc(C)cc3)C3=C2C(=O)CCC3)cc(OC)c1OC` (stereo not shown), `COc1ccc2[nH]c3c(=O)n(CCC(=O)NCCc4ccc(OC)c(OC)c4)c(=S)[nH]c3c2c1` is lower in “% Inhibition @ 10 uM” value: -4.12% for the first, -7.65% for the second.

Going from `CCc1ccc(C2=NN(CCC(=O)NC(C)(C)C)C(=O)CC2)cc1` to `CCc1ccc(C2CC(=O)NC3=C2C(=O)CC(C)(C)C3)cc1` (stereo not shown), the “% Inhibition @ 10 uM” value falls from 2.35% to -5.2%.

Compared with `COc1ccc(C2=NS(=O)(=O)N(C)C(C(=O)N3CCC4(CC3)OCCO4)=C2)cc1`, `CC1CCN(S(=O)(=O)c2ccc3c(ccn3CC(=O)N3CCc4ccccc4C3)c2)CC1` is lower in “% Inhibition @ 10 uM” value: 3.92% for the first, -3.34% for the second.

Compared with `O=C(C1CCCN(Cc2ccncc2)C1)N1CCc2ccccc2C1` (stereo not shown), `NC(=O)C1CCN(C(=O)CSc2c3c(nc4ccccc24)CCCC3)CC1` is higher in “% Inhibition @ 10 uM” value: -2.98% for the first, 0.317% for the second.

Compared with `CCCn1c2ccccc2c2cnn(CC(=O)NC3CCCC(C)C3C)c(=O)c21` (stereo not shown), `O=Cc1cn(CC(=O)NCC2CCCO2)c2ccccc12` (stereo not shown) is lower in “% Inhibition @ 10 uM” value: 4.39% for the first, 2.35% for the second.

First: O=C(CC12CC3CC(C1)CC(CC(=O)N1CCOCC1)(C3)C2)N1CCOCC1
Second: O=C(NCCC1=CCCCC1)C1CCN(c2nnc(-n3cccc3)s2)CC1
The “% Inhibition @ 10 uM” value of the first is higher: 5.04% for the first, 0.942% for the second.

Compared with `Cc1ccc(/C=C2\C(=O)ON=C2c2ccccc2)o1`, `CC(C)C(=O)NCCc1nc2ccccc2n1Cc1ccccc1F` is lower in “% Inhibition @ 10 uM” value: 21.3% for the first, -1.74% for the second.

First: OC12CCCCC1C(c1ccc(F)c(Br)c1)NCC2 (stereo not shown)
Second: O=C(CCN1CCCCC1)c1ccccc1
The “% Inhibition @ 10 uM” value of the first is lower: -5.48% for the first, 7.15% for the second.

Going from `Cc1c(CN2CC3(C)CC2CC(C)(C)C3)c(=O)n(-c2ccccc2)n1C` (stereo not shown) to `O=C1NC(=O)C(Cc2ccccc2)C(=O)N1`, the “% Inhibition @ 10 uM” value rises from -2.21% to 3.32%.

Compared with `CCOC(=O)C1=C(CSc2nc3cccnc3[nH]2)NC(=O)NC1c1cc(C)ccc1C` (stereo not shown), `Cc1ccc(Nc2cc(Br)c3ncnc4c3c2C(=O)c2ccccc2-4)cc1` is lower in “% Inhibition @ 10 uM” value: -0.834% for the first, -2.03% for the second.

First: C#CC(C)(CC)NS(=O)(=O)c1cc(OC)c(Cl)cc1OC (stereo not shown)
Second: Cc1cc(C)c(CN2CCCN(Cc3ccccc3Cl)S2(=O)=O)c(C)c1
The “% Inhibition @ 10 uM” value of the first is higher: 0.324% for the first, -1.41% for the second.

Compared with `CC(C)(C)S(=O)(=O)c1ccc(S(=O)(=O)C(C)(C)C)s1`, `Cc1sc(NC(=O)CC(C)(C)CC(=O)Nc2sc(C)c(C)c2C(=O)O)c(C(=O)O)c1C` is lower in “% Inhibition @ 10 uM” value: 0.00178% for the first, -6.02% for the second.

Going from `CC(C)Cn1cc(NC(=O)NCC2CCN(CCc3ccc(F)cc3)CC2)c2ccccc2c1=O` to `COc1ccc2c(CNCCCc3ccccc3)c(C(=O)O)[nH]c2c1`, the “% Inhibition @ 10 uM” value rises from -5% to -2.39%.

Compared with `CCNS(=O)(=O)c1ccc(NC(=O)Cn2nc(C(F)(F)F)cc2C2CC2)cc1`, `CCCCNC(=O)CN(c1ccc(Br)cc1)S(=O)(=O)c1ccccc1` is higher in “% Inhibition @ 10 uM” value: -9.57% for the first, -3.83% for the second.

Going from `COc1ccc(CN2CCN(c3ccccc3Cl)CC2)cc1C` to `COCCN1C(=O)C(O)=C(C(=O)c2ccc3c(c2)CC(C)O3)C1c1cccc(Oc2ccccc2)c1` (stereo not shown), the “% Inhibition @ 10 uM” value rises from -0.969% to 1.78%.

First: COC(=O)CC(N)c1ccccc1 (stereo not shown)
Second: Nc1ccc(NS(=O)(=O)c2ccccc2)cc1
The “% Inhibition @ 10 uM” value of the first is lower: -0.239% for the first, 1.9% for the second.

Going from `CC(C)c1ccc(/C=C(/C#N)c2nc(-c3cccs3)cs2)cc1` to `O=C(NCc1ccco1)c1cc2cc3ccc(Cl)cc3nc2o1`, the “% Inhibition @ 10 uM” value rises from -0.856% to 1.9%.

Compared with `O=C(NCc1ccccn1)c1cc2c(s1)-c1ccccc1S(=O)(=O)C2`, `O=C(CC(Nc1ccc2ncccc2c1)c1ccccc1)c1ccccc1` (stereo not shown) is higher in “% Inhibition @ 10 uM” value: -5.81% for the first, 2.55% for the second.

Going from `CC(C)C[C@H](NC(=O)c1cc([N+](=O)[O-])cs1)C(=O)NCC#N` to `N#CCNC(=O)C(Cc1c(F)cccc1F)NC(=O)OCc1ccccc1` (stereo not shown), the “% Inhibition @ 10 uM” value rises from -4.72% to 2.86%.

First: CCN(CC)CCNC(=O)COc1ccccc1O
Second: CCc1nc2ccccc2c(NC(=O)CNC(C)(C)CO)c1C
The “% Inhibition @ 10 uM” value of the first is lower: -1.54% for the first, 3.81% for the second.

With `CCc1cc(CC)c(CO)c(CC)c1/C=N/O` the “% Inhibition @ 10 uM” value was 2.46%.
